# Results published in article PMC4336329 (PLoS ONE, 2015).
# Out of some 310,000 compounds screened, about 14,000 (4.5%) showed an effect of 50% or more. The effect is printed as a negative number. Some of the results follow.
# Molecular target: human ether-à-go-go-related gene (hERG) potassium channel (human, UniProt Q12809)
# Experiment: primary screen, population patch clamp on CHO cells stably expressing hERG
# 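Further: peak tail current of the secondary pulse compared with the same well before compound.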
# Chain of human ether-à-go-go-related gene (hERG) potassium channel (Q12809 whole entry, looked up): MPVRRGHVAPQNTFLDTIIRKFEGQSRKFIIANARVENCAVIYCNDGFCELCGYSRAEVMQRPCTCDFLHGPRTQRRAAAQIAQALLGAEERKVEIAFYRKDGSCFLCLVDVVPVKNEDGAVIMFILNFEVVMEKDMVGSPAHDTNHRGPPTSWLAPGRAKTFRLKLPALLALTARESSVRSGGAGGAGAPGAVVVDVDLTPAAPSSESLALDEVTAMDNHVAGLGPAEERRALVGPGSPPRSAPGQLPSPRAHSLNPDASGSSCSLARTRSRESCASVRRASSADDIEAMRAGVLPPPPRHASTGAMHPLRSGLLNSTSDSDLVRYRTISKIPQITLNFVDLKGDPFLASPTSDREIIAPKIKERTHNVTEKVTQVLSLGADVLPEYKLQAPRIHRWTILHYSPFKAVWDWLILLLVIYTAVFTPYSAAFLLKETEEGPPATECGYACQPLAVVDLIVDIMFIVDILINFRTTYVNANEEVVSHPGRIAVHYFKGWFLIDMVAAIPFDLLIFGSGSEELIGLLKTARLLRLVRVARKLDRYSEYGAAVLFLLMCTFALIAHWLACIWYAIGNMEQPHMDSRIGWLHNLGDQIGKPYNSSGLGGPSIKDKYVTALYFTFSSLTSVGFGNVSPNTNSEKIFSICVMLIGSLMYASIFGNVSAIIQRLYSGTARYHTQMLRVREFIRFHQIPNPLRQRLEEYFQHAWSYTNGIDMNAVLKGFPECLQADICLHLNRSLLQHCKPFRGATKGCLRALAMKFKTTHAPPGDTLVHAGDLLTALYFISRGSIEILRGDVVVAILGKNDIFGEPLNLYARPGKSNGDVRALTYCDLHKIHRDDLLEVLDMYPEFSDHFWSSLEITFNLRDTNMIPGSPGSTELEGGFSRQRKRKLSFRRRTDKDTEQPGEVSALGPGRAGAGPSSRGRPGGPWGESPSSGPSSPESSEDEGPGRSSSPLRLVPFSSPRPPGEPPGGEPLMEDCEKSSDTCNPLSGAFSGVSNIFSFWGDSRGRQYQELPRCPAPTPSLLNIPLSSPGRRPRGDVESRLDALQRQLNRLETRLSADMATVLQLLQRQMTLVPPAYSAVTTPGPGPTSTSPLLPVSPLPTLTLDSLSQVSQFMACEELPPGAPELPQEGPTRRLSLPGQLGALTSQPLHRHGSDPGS
row,SMILES,"hERG current change (%, negative = inhibition) at 10uM [%]"
1,Cc1cc(C(C)c2ccccc2)c(O)c(CN2CCOCC2)c1C (stereo not drawn),9.05
2,COc1ccc(CN2CCN(C3CCOCC3)CC2CCO)c(C)c1C (stereo not drawn),-12.4
3,CC(OC(=O)/C=C/c1ccccc1)C(=O)Nc1ccc(C(N)=O)cc1 (stereo not drawn),13
4,Nc1ccc(/C=C/C(=O)c2ccco2)cc1,-8.19
5,COC(=O)C1=C(C)NC(C)=C(C(=O)OC)C1c1ccc(OC(=O)c2ccco2)cc1,9.46
6,CCOc1ccc(C2C(C(=O)c3ccco3)=C(O)C(=O)N2Cc2cccnc2)cc1 (stereo not drawn),3.07
7,Cc1csc(NC(=O)CSc2ccc3nnc(CCNS(=O)(=O)c4ccccc4)n3n2)n1,22.4
8,CC(=O)NCCn1c(SCC(=O)NCCc2ccc(S(N)(=O)=O)cc2)nc2ccccc2c1=O,13
9,CCC(c1nnnn1C(C)(C)C)N1CCN(Cc2ccccc2OC)CC1.Cl (stereo not drawn),-19.2
10,O=C(CCc1nnc(-c2ccc3c(c2)OCO3)o1)NC(c1ccccn1)C(F)(F)F (stereo not drawn),4.2
11,COc1ccc(C(=O)Nc2cc(C)on2)cc1,20.9
12,O=C(ONC1=NCCCCC1)c1cccc([N+](=O)[O-])c1,0.994
13,COC(=O)c1ccccc1NC(=O)N1CCN(c2ccccc2F)CC1,-11.9
14,Cc1nccn1CC(=O)N/N=C/c1cccs1,20.4
15,CNC(=S)N/N=C/c1ccc(-c2ccc(C(=O)O)cc2)o1,9.52
16,CCCC(=O)N1CCN(c2ccc(NC(=S)NC(=O)c3cccc(C)c3)cc2)CC1,-18.3
17,COc1ccc(C(=O)/C=C\c2ccc(NC(=O)c3cccs3)cc2)cc1,9.53
18,O=C1NC(=O)C2(COC3(CCCC3)OC2)S1,1.26
19,COc1ccc(C(C(=O)NCc2ccc(F)cc2)N(Cc2cccnc2)C(=O)c2snc(C(N)=O)c2N)cc1 (stereo not drawn),-62
20,Cc1cccc(C(=O)NNC(=O)CCCCC(=O)NNC(=O)c2cccc(C)c2)c1,11.7
21,CCCNS(=O)(=O)c1ccc(OCC(=O)Nc2ccc3c(c2)OCO3)cc1,21.9
22,CC(Nc1ccccc1)c1cccnc1 (stereo not drawn),-49.1

row,SMILES,"hERG current change (%, negative = inhibition) at 10uM [%]"
1,O=[N+]([O-])c1ccccc1S(=O)(=O)n1cnc2ccccc21,8.53
2,NS(=O)(=O)c1ccc(CNC(=O)c2ccc(Br)o2)cc1,-1.54
3,COc1ccccc1N/N=C(\C#N)C(=N)N1CCOCC1,1.49
4,O=C(/C=C/c1c(Cl)cccc1Cl)n1cccn1,15.7
5,CN(CCn1ccnc1)Cc1cn(Cc2ccccc2)nc1-c1ccc2c(c1)OCO2,-23.2
6,CCc1ccc2oc(-c3ccc(OC)cc3)cc(=[NH+]c3c(C)n(C)n(-c4ccccc4)c3=O)c2c1.F[B-](F)(F)F,-71.7
7,Cc1ccc(NC(=O)CCNS(=O)(=O)c2ccccc2)c(C(=O)c2ccccc2)c1,-20.4
8,O=C(Cc1ccccc1)N/N=C/C=C/c1ccccc1[N+](=O)[O-],1.71
9,c1ccc(-n2nnnc2N2CCOCC2)cc1,8.78
10,CCOC(=O)N1CCN(C(=O)c2cccc(NC(=O)c3ccco3)c2)CC1,-11
11,Cc1ccn2cc(-c3ccc(O)c(O)c3)nc2c1.Cl,-4.03
12,Cl.OC(CN1C2=NCCN2c2ccccc21)c1ccccc1 (stereo not drawn),-42.7
13,COc1ccc(-n2cc(CNCC3CCOCC3)c(-c3cccc(F)c3)n2)cc1,-78.5
14,COc1cc2c(cc1NC(=O)C(C)Sc1ccc(NC(C)=O)cc1)oc1ccccc12 (stereo not drawn),7.08
15,O=C(NCc1ccc(F)cc1)C(c1ccccc1)c1ccccc1,4.43
16,CCOc1ccc(N=Cc2c(O)c3ccccc3oc2=O)cc1,3.29
17,Cn1c(SCC(=O)NC2CCCCCC2)nnc1-c1cccs1,-22.1
18,Cc1cccc(CC(=O)N2CCCC2)c1,12.2
19,CC(C)Oc1ccc(C(=O)Nc2ccc(C(F)(F)F)n(C)c2=O)cc1,9.94
20,Cc1ccccc1-n1sc2cc(F)ccc2c1=O,31.1
21,CC(=O)OC(C(=O)Nc1ccccc1)C(C)S(=O)(=O)c1ccccc1 (stereo not drawn),-5.81
22,CCCNc1ccc(C(=O)OCC)cc1[N+](=O)[O-],-6.67

row,SMILES,"hERG current change (%, negative = inhibition) at 10uM [%]"
1,O=C(/C=C/c1ccc(Cl)cc1)N(c1ccccn1)C1CCCCC1,-7.91
2,CCOc1ccc2nc(SCC(=O)NCc3ccccc3)[nH]c2c1,2.63
3,COC(=O)c1cccc(NC(=O)c2ccc(OC)c(Cl)c2)c1,-65.3
4,Cc1ccccc1N(CC(=O)NCCc1ccccc1)C(=O)c1csnn1,9.77
5,O=S(=O)(Cc1ccccc1)N1CCN(C/C=C/c2ccccc2)CC1,-5.88
6,CC(=O)Nc1ccc(/C=C/c2nc3ccccc3o2)cc1,5.42
7,O=C(Nc1ccc(F)c(F)c1)C1CCCCC1,4.34
8,CSc1nc2ccc(NS(=O)(=O)c3ccc4c(c3)OCCO4)cc2s1,5.09
9,COC(=O)C1CN(C(=O)C(C)Oc2ccc(C(C)C)cc2)c2ccccc2O1 (stereo not drawn),0.965
10,CCCN(CC(=O)Nc1ccccc1OC)C(=O)c1ccc2c(c1)NC(=O)C(C)S2 (stereo not drawn),-20.8
11,CSCCC(NS(=O)(=O)c1ccc2c(c1)OCCO2)C(=O)N(C)Cc1ccccc1F (stereo not drawn),-26.1
12,COc1cccc(-c2cc(C(F)(F)F)nc(N3CCN(c4ccccc4)CC3)n2)c1,13.8
13,Cn1c(N)c(C(=O)COC(=O)C2CC(=O)N(Cc3ccccc3)C2)c(=O)n(C)c1=O (stereo not drawn),3.62
14,CS/C(N)=N/N=C/c1cc(Br)cc(Br)c1O,4.8
15,Cc1ccc(S(=O)(=O)Oc2ccc(N3C(=O)C4C5CCC(C5)C4C3=O)cc2)cc1 (stereo not drawn),11.4
16,COc1ccc(/C=N\NC(=O)c2cc3c(ccc4ccccc43)o2)cc1O,5.36
17,CC1(C)CC2(CCO1)CNC(=O)O2 (stereo not drawn),2.78
18,COc1ccc(/C=N/Nc2nc(-c3ccc(C)cc3)c(NC(C)=O)s2)cc1OC,11
19,Cc1nnc(NC(=O)CSc2nc(N)c(NC(=O)c3cccs3)c(=O)[nH]2)s1,9.44
20,CC(C)CC(NC(=O)c1ccc(Cl)cc1)C(=O)OCc1cc([N+](=O)[O-])cc2c1OCOC2 (stereo not drawn),-4.59
21,O=C(CSc1ccc([N+](=O)[O-])cc1)NNC(=O)c1ccccc1F,-38.9
22,O=C(OCC(=O)N1CCCCCC1)c1ccc([N+](=O)[O-])cc1Cl,8.47

row,SMILES,"hERG current change (%, negative = inhibition) at 10uM [%]"
1,CCc1ccccc1NC(=O)c1cc(S(=O)(=O)N(C)C)ccc1N1CCCC1,-32.2
2,c1csc(-c2nc(NCCCN3CCOCC3)c3ccccc3n2)c1,-50.7
3,CCOc1ccc2ccccc2c1C1NC(=S)N(C)C(C)=C1C(=O)OC (stereo not drawn),14.4
4,COc1c(C=O)c(CCN(C)C(=O)c2ccc(F)cc2)cc2c1OCO2,7.91
5,Cc1nn(Cc2c(F)c(F)c(F)c(F)c2F)c(C)c1NC(=O)c1c([N+](=O)[O-])c(C)nn1C,18.5
6,Cc1ccc(S(=O)(=O)N2CCN(C(=O)C3=COCCO3)CC2)cc1C,-17.1
7,CC1(C)OC(c2ccccc2)=C/C(=C\C=N\NC(=O)c2ccncc2)O1,-11.5
8,CCc1nn(CCCC(=O)N2CCN(c3ccc(OC)cc3)CC2)c(=O)c2cc3occc3n12,-2.74
9,O=C(Cc1cccc(NC(=O)C2CCN(C(=O)C3CCCCC3)CC2)c1)Nc1cccc(C(=O)N2CCCC2)c1,7.98
10,CCOC(=O)C(C)Oc1cccc2c(=O)n(CC(=O)Nc3ccc(OCC)cc3)ccc12 (stereo not drawn),2.38
11,COc1ccc(N2CC(C(=O)NNC(=O)c3ccc(Br)cc3)CC2=O)c(OC)c1 (stereo not drawn),-20.2
12,CCN(CC)CCCN=C(C)c1c(O)n(C2CCCCC2)c(=O)[nH]c1=O,-48.7
13,O=C(CN1CCN(c2ccccc2)CC1)N/N=C/c1cccc(F)c1,4.27
14,Cc1ccc(/C=C2/NC(=O)N(Cc3ccccc3F)C2=O)s1,11.8
15,CCOC(=O)C1=C(COC(=O)CNC(=O)c2ccccc2F)NC(=O)NC1C (stereo not drawn),7.46
16,O=C1CCC([N+](=O)[O-])C(c2ccc(Br)cc2)N1 (stereo not drawn),7.57
17,COC(=O)C1Cc2c([nH]c3ccccc23)C2(CCN(Cc3ccccc3)CC2)N1 (stereo not drawn),-68.2
18,COc1ccc(CCNC(=O)c2ccc(-c3ccc([N+](=O)[O-])cc3Cl)o2)cc1OC,-16.5
19,CC(C)Cn1c(SCC(=O)N(C)c2c(N)n(Cc3ccccc3)c(=O)[nH]c2=O)nc2ccccc21,17
20,O=C(O)Cc1ccc(-n2cccc2)cc1,29.2
21,COc1cccc(CNC(=S)Nc2cccc(Cl)c2C)c1,4.16
